The results in this text go back to PubChem BioAssay AID1508624 (National Center for Advancing Translational Sciences (NCATS), 2021).

Structures are written as SMILES. The whole screen tested about 48,000 compounds, of which about 120 (0.25%) were called active. About 4% were inconclusive and are not listed. Calls follow the shape of the dose curve; as a rule, active = well fitted activation curve with a large enough effect; inconclusive = small, poorly fitted or top-dose-only effect, or another doubt; inactive = no such curve, though single readings can be large or run the other way. The list shows a part of the results.

The assay is described as follows: Primary qHTS for Identification of Small Molecule Activators of Huntingtin-Antisense Promoter Activity. Also: nearly all actives have a fitted effect of over 55% in size. As to conditions: HEK293 HTT-AS promoter firefly luciferase reporter (activity 0% = vehicle and -100% = no light), 24 h; series mostly up to 57.5 µM; activity change, positive = activation: at the top concentration. In outline: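 Luminescence was read after Dual-Glo reagent and a 10 min room-temperature incubation. Values were normalized to vehicle (0% activity) and zero RLU (-100% activity). Reporter HEK293 cells had been exposed to compounds (up to 57.5 uM final) for 24 h.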
On to `CCC(=O)N1CCc2cc(Br)cc(S(=O)(=O)N3CCC(C(=O)Nc4ccc(OC)cc4)CC3)c21`, for which the “activity change, positive = activation” value is inactive: -27.4%.
As to `COc1ccc(NC(=O)CSc2nc(-c3cccs3)cc(C(F)(F)F)n2)cc1OC`, the “activity change, positive = activation” value is inactive: -32.4%.
As to `O=C(CSc1nc2ccccc2nc1Cc1ccccc1)NCc1ccccc1Cl`, the “activity change, positive = activation” value is inactive: -7.26%.
Consider `CCOC(=O)c1ccccc1O`, for which the “activity change, positive = activation” value was inactive: -5.98%.
Turning to `COc1ccc(CNC(=O)CSc2nc(-c3ccc(OC)cc3)cc(C(F)(F)F)n2)cc1`, the “activity change, positive = activation” value was inactive: -14.5%.
The same measure for `Cc1ccc(CCNC(=O)CCCn2nc(C)c3c(C)n(-c4ccccc4)nc3c2=O)cc1`: inactive: 0.653%.
Next, `COc1cccc(-c2cc(C(=O)Nc3cc(Cl)ccc3O)on2)c1`: inactive: 23.1%; `Cc1ccc(NC(=O)CN(C)S(=O)(=O)c2ccc3c(c2)n(C)c(=O)c(=O)n3C)cc1C`: inactive: -10.3%; `Cc1ccc(-c2nc3c4ccccc4n(CC(=O)N4CCN(c5ccccc5F)CC4)c(=O)n3n2)cc1`: inactive: -2.57%.
The same measure for `Cc1ccccc1CNC(=O)c1cnc2sc(N3CCOCC3)nn2c1=O`: inactive: -5.31%; for `Cc1ccc(-n2nnnc2CNC(=O)C(C)(C)C)cc1C`: inactive: -0.797%; for `Cc1nc(SC(C)C(=O)Nc2ccccc2C)cc(-c2ccccc2)n1` (stereo not drawn): inactive: -19.5%.
Consider `CCOC(=O)N[C@@H]1CC[C@@H]2[C@@H](C1)C[C@H]1C(=O)O[C@H](C)[C@H]1[C@@H]2C=Cc1ccc(-c2cccc(F)c2)cn1`, for which the “activity change, positive = activation” value is inactive: -24.6%.
Next, `CCOc1ccc(CCNC(=O)Cn2nc(C)n3c(cc4occc43)c2=O)cc1OCC`: inactive: -13%; `CCn1c2ccccc2c2nnc(SCC(=O)O)nc21`: inactive: -5.97%; `COC(=O)C1=C(CS(=O)(=O)c2cc(Cl)ccc2OC)NC(=O)NC1c1ccccc1` (stereo not drawn): inactive: -29.9%.
In the case of `CCCCOc1ccc(C(=O)N2CCN(CCc3ccncc3)CC2)cc1`, the “activity change, positive = activation” value was inactive: 5.56%.
The same measure for `COCCCNC(=O)c1oc2c(c1C)-c1nn(Cc3cccc(Cl)c3)cc1CC2`: inactive: -41.2%; for `COc1ccccc1N1CCN(C(=O)c2nn(-c3ccc(C)cc3)c(=O)n(C)c2=O)CC1`: inactive: -15.4%.
The same measure for `CCOC(=O)c1ccc(Nc2c(-c3ccc(O)c(OC)c3)nc3nc[nH]n23)cc1`: inactive: -15.8%; for `Cc1cc2nnc(SCC(=O)Nc3ccc(F)c(Cl)c3)n2c2ccccc12`: inactive: -1.08%.
Next, `COc1cc(NS(=O)(=O)c2ccc3c(c2)CCN3S(C)(=O)=O)cc(OC)c1`: inactive: -12.1%.
Take `CCc1ccccc1NC(=O)Cn1c(=O)n(Cc2ccc3c(c2)OCO3)c(=O)c2ccc(C(=O)NC3CCCCC3)cc21`: the “activity change, positive = activation” value is inactive: -11.4%.
On to `Cc1ccccc1-c1nc(CS(=O)(=O)CC(=O)NCC(C)c2ccccc2)c(C)o1` (stereo not drawn), for which the “activity change, positive = activation” value is inactive: -24.6%.
Next, `O=C(COc1ccccc1Cl)NCC1(N2CCOCC2)CCCCC1`: inactive: -44.9%; `COc1cc(OC)c(NC(=O)C2CCCN(c3ncnc4c3nc3n4CCCCC3)C2)cc1Cl` (stereo not drawn): inactive: -10.6%.
The same measure for `CCc1ccc(OCC(=O)Nc2cc3oc4ccccc4c3cc2OC)cc1`: inactive: -3.43%; for `Cc1c(NC(=O)c2cccnc2)c(=O)n(-c2ccccc2)n1C`: inactive: -1.54%; for `O=C(NCCc1ccccc1)c1cnc2sc(N3CCCC3)nn2c1=O`: inactive: -18%.
The same measure for `CCCc1nn2c(=O)cc(COC(=O)c3cccc(NC(=O)COc4ccccc4C)c3)nc2s1`: inactive: -8.39%; for `CC1CCC(NC(=O)c2ccc3c(c2)N(Cc2ccccc2)C(=O)c2ccccc2S3=O)CC1` (stereo not drawn): inactive: -0.0463%.
Regarding `COc1cc(-c2nnn(CC(=O)Nc3ccc(OC(F)(F)F)cc3)n2)cc(OC)c1OC`, the “activity change, positive = activation” value was inactive: -28.9%.
As to `CCOC(=O)c1c(C)[nH]c(CCC(=O)Nc2cc(C)ccc2OC)c1C`, the “activity change, positive = activation” value was inactive: -26.7%.
The same measure for `CCOC(=O)c1cccc(NC(=O)CN2C(=O)c3ccccc3Sc3ncccc32)c1`: inactive: -8.62%; for `Cc1ccc(C(=O)NCc2ccc(N(C)C)cc2)cc1NC(=O)c1nsc2ccccc12`: inactive: -7.83%.
As to `O=C(CSCc1ccccc1Cl)N1CCN(c2ccc(F)cc2)CC1`, the “activity change, positive = activation” value was inactive: 3.39%.
The same measure for `CN1C(C(=O)Nc2ccc(F)cc2F)=CC(c2ccco2)=NS1(=O)=O`: inactive: -7.28%; for `Cc1nnc(NCc2ccccc2)c2c1nnn2Cc1ccccc1Cl`: inactive: 4.79%.
Take `Cc1cccc(C)c1NC(=O)c1oc2ccc3c(c2c1C)C(=O)CC(C)(C)O3`: the “activity change, positive = activation” value is inactive: -9.25%.
`Cc1cc2oc(C(=O)Nc3c(C(=O)Nc4ccccc4)oc4ccccc34)cc(=O)c2cc1C`: the “activity change, positive = activation” value is inactive: -2.07%.
`Cc1cccn2c(=O)c(C(=O)NCCCN3CCCCC3C)c(O)nc12` (stereo not drawn): the “activity change, positive = activation” value is inactive: -14.4%.
For the compound `O=C(Cn1ncc2c1-c1ccccc1OC2)N1CCN(c2ccccc2F)CC1`, the “activity change, positive = activation” value was inactive: -24.8%.
The same measure for `COc1ccccc1CNC(=O)C1CCCN(S(=O)(=O)c2ccc3c(c2)CCCN3C(C)=O)C1` (stereo not drawn): inactive: -3.78%.
Consider `CCc1nn2c(=O)cc(COC(=O)c3cccc(NC(=O)c4ccccc4Cl)c3)nc2s1`, for which the “activity change, positive = activation” value was inactive: 14.7%.
Next, `CS(=O)(=O)OCCCCOS(C)(=O)=O`: “inactive”; `CCc1ccc2c(c1)c(=O)c(S(=O)(=O)c1ccc(F)cc1)cn2CC(=O)Nc1ccc(C)cc1C`: inactive: -21.6%.
The same measure for `Cc1ccc(CNC(=O)C2CCCN(S(=O)(=O)c3cccc4nsnc34)C2)cc1` (stereo not drawn): inactive: -13.9%; for `CCCn1ccc2c(OCC(=O)NCc3ccc(C)cc3)cccc2c1=O`: inactive: -5.08%.
